Results: PMC4336329 (PLoS ONE, 2015)
Out of some 310,000 compounds screened, about 2,200 (0.71%) showed an effect of 50% or more. Effects have a minus sign here. The list shows a part of the results.

Each compound was assayed against human ether-à-go-go-related gene (hERG) potassium channel (human, UniProt Q12809) (assay: primary screen, population patch clamp on CHO cells stably expressing hERG).
Chain of human ether-à-go-go-related gene (hERG) potassium channel (Q12809 whole entry, looked up): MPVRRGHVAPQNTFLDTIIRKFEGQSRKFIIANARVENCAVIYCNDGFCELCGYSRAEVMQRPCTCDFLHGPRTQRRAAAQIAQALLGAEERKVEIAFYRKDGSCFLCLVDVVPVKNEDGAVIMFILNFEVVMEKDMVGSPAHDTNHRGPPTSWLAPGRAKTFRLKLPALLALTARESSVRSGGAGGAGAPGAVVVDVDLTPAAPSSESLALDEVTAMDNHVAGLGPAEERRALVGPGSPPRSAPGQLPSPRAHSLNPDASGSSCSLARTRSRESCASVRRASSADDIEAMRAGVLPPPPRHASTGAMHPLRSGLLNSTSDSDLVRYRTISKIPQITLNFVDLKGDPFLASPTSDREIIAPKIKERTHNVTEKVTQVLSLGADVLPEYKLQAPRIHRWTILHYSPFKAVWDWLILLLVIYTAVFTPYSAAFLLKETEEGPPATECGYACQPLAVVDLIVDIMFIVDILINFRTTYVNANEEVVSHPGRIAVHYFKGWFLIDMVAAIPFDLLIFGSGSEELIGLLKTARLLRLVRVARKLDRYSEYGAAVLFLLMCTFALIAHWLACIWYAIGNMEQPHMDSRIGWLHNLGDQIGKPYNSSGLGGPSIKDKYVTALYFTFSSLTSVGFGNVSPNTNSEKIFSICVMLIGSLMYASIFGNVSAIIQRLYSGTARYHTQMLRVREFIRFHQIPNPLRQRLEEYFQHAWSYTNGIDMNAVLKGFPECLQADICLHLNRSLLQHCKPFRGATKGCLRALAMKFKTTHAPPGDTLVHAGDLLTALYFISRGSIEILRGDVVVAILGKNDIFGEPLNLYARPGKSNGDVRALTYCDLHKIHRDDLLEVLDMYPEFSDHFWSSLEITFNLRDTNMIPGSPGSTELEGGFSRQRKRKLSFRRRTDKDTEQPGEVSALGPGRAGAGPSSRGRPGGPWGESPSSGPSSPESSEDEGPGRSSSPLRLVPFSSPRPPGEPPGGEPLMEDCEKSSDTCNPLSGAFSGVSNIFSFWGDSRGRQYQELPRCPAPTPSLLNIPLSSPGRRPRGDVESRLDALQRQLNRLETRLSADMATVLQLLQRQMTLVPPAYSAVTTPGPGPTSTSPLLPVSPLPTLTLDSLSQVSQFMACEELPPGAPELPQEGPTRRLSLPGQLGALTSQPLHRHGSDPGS

| Structure (SMILES) | hERG current change (%, negative = inhibition) at 1uM |
| --- | --- |
| O=C(N/N=C/c1ccco1)c1ccc(NC(=O)c2ccccc2Cl)cc1 | 14% |
| Cc1c(C(=O)N2CCc3ccccc3C2)oc2ccc(Br)cc12 | 11.7% |
| Cc1noc(C)c1COC(=O)CCc1nc2ccccc2c(=O)[nH]1 | 11.5% |
| CC(=O)Nc1ccc(C(=O)OCC(=O)NC(=O)NC2CCCCC2)cc1 | 4.04% |
| O=C(CSc1ccc(-c2ccccn2)nn1)NC1CCCC1 | 12.9% |
| CCN(CC)CC(C(=O)N(CC)CC)P(=O)(c1ccccc1)c1ccccc1 (centres unmarked) | 12.9% |
| COc1ccc(S(=O)(=O)NNC(=O)Cc2csc(C)n2)cc1[N+](=O)[O-] | 19.3% |
| c1ccc(CCc2ccccc2-c2nc(-c3cccnc3)no2)cc1 | 18.3% |
| COCCCNS(=O)(=O)c1ccc2[nH]c3c(c2c1)CCCCC3 | 12.6% |
| C/C(=N\Nc1nc2ccccc2c(=O)n1O)c1ccco1 | 10.3% |
| CCc1ccc2c(Cl)c(C(=O)N/N=C/c3c[nH]c4ccccc34)sc2c1 | 4.09% |
| COc1ccc(/C=C/C(=O)OCC(=O)N2CC(=O)Nc3ccccc32)cc1S(=O)(=O)N1CCOCC1 | 12.2% |
| O=C(c1cccc(S(=O)(=O)Nc2ccc(F)cc2)c1)N1CCCC1 | 9.34% |
| COc1cc(OC)cc(C(=O)Nc2ncc3c(n2)CC(C)CC3=O)c1 (centres unmarked) | 5.83% |
| O=C1CCC[C@@H]2[C@H]3CCC[N+]4([O-])CCC[C@@H](CN12)[C@@H]34 (some centres unmarked) | 12.6% |
| Cn1nnnc1SCC(=O)Nc1nn(-c2ccccc2)nc1C(N)=O | 1.55% |
| CCO[C@H]1OC(C(=O)NCc2nc3ccccc3[nH]2)=C[C@@H](C2CC2)[C@@H]1CCCO | 22.7% |
| O=C(NNC(=O)c1ccc[nH]1)Nc1cc(Cl)cc(Cl)c1 | 9.53% |
| C/C(=C\C(=O)c1ccc(Br)cc1)Nc1cccc(Cl)c1 | 14% |
| CC(NC(=O)c1ccccc1)C(=O)N/N=C/c1ccco1 (centres unmarked) | 16.4% |
| O=C(Nc1ccc2ccccc2c1)NC1CCS(=O)(=O)C1 (centres unmarked) | 6.63% |
| O=C(COc1ccc(Cl)cc1Cl)N/N=C/c1ccccn1 | -9.58% |
| NC(=S)N=Nc1c(O)[nH]c2cc(F)c(F)cc12 | 13.6% |

| Structure (SMILES) | hERG current change (%, negative = inhibition) at 1uM |
| --- | --- |
| O=C(CCCCCn1c(=S)[nH]c2ccccc2c1=O)N1CCOCC1 | 7.98% |
| Cc1c(-c2cccc(NC(=O)c3cccs3)c2)nc2ncccn12 | 0.543% |
| O=C(NCc1ccccc1F)Nc1ccc([N+](=O)[O-])cc1 | 15.4% |
| O=C(COC(=O)c1ccc2c(c1)C(=O)N(Cc1ccncc1)C2=O)Nc1ccccc1[N+](=O)[O-] | -2.11% |
| O/N=C/c1ccnc(SCc2ccc(Cl)cc2)n1 | 0.167% |
| O=C(CNCc1ccccc1)NCCCN1CCCC1=O.O=C(O)C(=O)O | 14.8% |
| CCN(CC)C(=O)Cc1ccccc1 | 13.5% |
| O=C(N/C(=C\c1cccnc1)C(=O)N1CCOCC1)c1cccc(Br)c1 | 12.5% |
| COC(=O)c1sc(S(=O)(=O)NCCCN(C)C)c(C(=O)OC)c1C | 10.6% |
| NC(=O)c1ccc(NC(=O)COC(=O)c2ccc3c(c2)OCCO3)cc1 | 7.54% |
| CCc1ccc(/C=C2/Sc3ccccc3N(CC(=O)NCCCN3CCOCC3)C2=O)cc1 | 0.526% |
| CCOCCCn1c(=NC(C)=O)c(C#N)cc2c(=O)n3cccc(C)c3nc21 | -7.46% |
| CC(C)c1ccc(C2(C)NC(=O)N(CC(=O)NC3CCCC(C)C3C)C2=O)cc1 (centres unmarked) | 6.29% |
| Cc1nnc2c(N3CCN(CCO)CC3)nc3ccccc3n12 | 7.4% |
| CC(C)(C)c1cc(NC(=O)CCSc2nnc3ccccn23)cc(C(C)(C)C)c1 | 11.9% |
| CCOc1cc(NS(=O)(=O)CC)c(OCC)cc1NC(=O)c1ccco1 | 1.42% |
| O=C(O)c1ccc(S(=O)(=O)/N=C2\C=C(Nc3ccccc3F)C(=O)c3ccccc32)cc1 | 4.01% |
| COc1ccc(C)cc1S(=O)(=O)Nc1cc(Cl)ccc1Cl | 3.11% |
| O=C(O)c1cccnc1Sc1ncnc2sc3c(c12)CCC3 | 7.51% |
| O=C(N/N=C\c1ccc(F)cc1)c1cc(OCC(F)(F)F)ccc1OCC(F)(F)F | -8.67% |
| Cc1ccc(CNCC(O)(c2ccccc2)c2ccc(F)cc2)cc1 (centres unmarked) | -2.41% |
| COc1ccc(OC)c(C2C3=C(N=C4SCC(=O)N42)c2ccccc2CC3)c1 (centres unmarked) | 3.33% |
| Cc1c(C)c2cccnc2c2ncccc12 | 9.57% |

| Structure (SMILES) | hERG current change (%, negative = inhibition) at 1uM |
| --- | --- |
| Cc1ccc(N2CC(C(=O)Nc3ccc4c(c3)OCO4)CC2=O)cc1C (centres unmarked) | 11.6% |
| O=C1CCCc2c1[nH]c1ccccc21 | 19.2% |
| COC(=O)c1c(N2C(=O)[C@H]3[C@@H](C2=O)[C@]2(C(=O)Nc4c2ccc(C)c4C)N2CCC[C@@H]32)sc(C)c1C | 13.6% |
| CC(C)COc1cccc(C(=O)NC2(C)CCS(=O)(=O)C2)c1 (centres unmarked) | -1.01% |
| O=C1CCCN2N=C(SCC(=O)N3N=C(c4ccc(Br)cc4)CC3c3ccc(F)cc3)SC2=N1 (centres unmarked) | 5.91% |
| N/C(=N\OC(=O)Oc1ccccc1)c1ccc(Br)cc1 | 2.93% |
| O=C(N/N=C/c1ccc(OC(F)F)cc1)c1ccc(Br)cc1 | 2.07% |
| O=C(CC1NC(=O)NC1=O)Nc1ccc(Cl)cc1 (centres unmarked) | 21.8% |
| COc1cccc(-c2nc(C(=O)NCCCN3CCOCC3)cc3c2[nH]c2ccccc23)c1 | -1.55% |
| CCOC(=O)C1=C(C)NC2=C(C(=O)CCC2)C1c1coc2ccccc2c1=O (centres unmarked) | 10.7% |
| CCOC(=O)c1ccc(N2CCOCC2)c(NC(=O)c2ccc3c(c2)OCO3)c1 | 6.28% |
| CN(CC(=O)Nc1ccc(Cl)cc1)C(=O)CNC(=O)c1ccc(Br)o1 | 13.1% |
| CN(c1ccccc1)S(=O)(=O)c1ccc(C(=O)NCC(c2ccco2)N2CCCCC2)cc1 (centres unmarked) | -3.64% |
| O=C(NC1CC1)C(Cl)c1ccccc1 (centres unmarked) | 9.14% |
| CCCCCc1c(O)c2ccccc2[nH]c1=O | 2.35% |
| O=C(Cn1ncc2c(=O)oc3ccccc3c21)N1CCc2ccccc2C1 | 10.5% |
| O=C(c1ccc(S(=O)(=O)N2CCCC2)cc1)N1CCN(Cc2ccc3c(c2)OCO3)CC1 | -13.5% |
| CC1CC1C(=O)OCC(=O)NC(=O)NC12CC3CC(CC(C3)C1)C2 (centres unmarked) | 11.6% |
| CCSc1ncnc2c1sc1nc(-c3ccco3)c3c(c12)CC(C)(C)OC3 | 12.8% |
| CC1(C)CC(=O)C=C(N2CCOCC2)C1 | 11.3% |
| O=C(OCC(=O)N1CCC(Cc2ccccc2)CC1)c1ccccc1F | 11.7% |
| C[n+]1c(-c2ccccc2)sc2ccccc21.[O-][Cl+3]([O-])([O-])[O-] | 17.9% |
| CCCCN1CCN=C1Nc1ccccc1 | 11.8% |

| Structure (SMILES) | hERG current change (%, negative = inhibition) at 1uM |
| --- | --- |
| Cl.Nc1n[nH]c(-c2ccc(F)cc2)n1 | 4.01% |
| COc1ccc(CN2CCNC(=O)C2CC(=O)NCC(C)(C)N2CCOCC2)cc1C (centres unmarked) | 15.3% |
| Cn1c(=O)oc2cc(S(=O)(=O)N3CCC(C(=O)NCC4COc5ccccc5O4)CC3)ccc21 (centres unmarked) | 7.13% |
| Cc1nc2ccccc2c(=O)n1/N=C/c1ccccc1 | 10.3% |
| COC(=O)c1ccccc1S(=O)(=O)N1CCC(C(=O)NCC2CCCO2)CC1 (centres unmarked) | 12.7% |
| CN1CCN(C2=C(NS(=O)(=O)c3ccccc3)C(=O)c3ccccc3C2=O)CC1 | 11.5% |
| CCOc1ccc(-c2c(=O)n(OCc3ccc([N+](=O)[O-])cc3)c3ccccc3[n+]2[O-])c(OCC)c1 | 3.68% |
| Cc1ccc(N/N=C/c2ccncc2)cc1.Cl | 11.1% |
| CCN1CCN(CCC(=O)Nc2ccccc2OC)CC1 | 10.9% |
| COc1ccc(C=C2c3ccccc3C(=O)c3ccccc32)c(OC)c1 | 7.49% |
| O=C(O)c1ccccc1C(=O)Nc1nc(-c2ccccc2)cs1 | 2.8% |
| O=C(C1CCCC1)N1CCCC(Nc2ccc(F)cc2)C1 (centres unmarked) | -16.6% |
| COCCCNc1nc2ccccc2nc1NS(=O)(=O)c1ccc(Cl)cc1 | 1.52% |
| COc1ccc(-c2noc(N3CCC(C(=O)Nc4cccc(OC)c4)CC3)n2)cc1 | 12.1% |
| O=C(Cc1ccc(Cl)c(Cl)c1)NNC(=S)NCC1CCCO1 (centres unmarked) | 13.2% |
| COc1ccc(CC(=O)O/N=C(\N)c2ccccn2)cc1OC | 11.8% |
| O=C1OC(NCc2cccnc2)(c2ccc(Cl)cc2)c2ccccc21 (centres unmarked) | 9.52% |
| CCCCN1C(=S)NC[C@@H]1Cc1ccccc1 | -9.48% |
| CSc1ccccc1C(=O)C1CCCN(Cc2ccncc2)C1 (centres unmarked) | -13.9% |
| CNC(=S)N/N=C/c1c(C)nn(-c2ccc(F)cc2)c1Cl | 13% |
